These are yes or no findings as the source states them, for the method shown. Binding seen in cells or lysates may run through a third protein. Some results given as binding are weak or reduced against the parent protein; the word gives no strength.
Key:
[1] = target: full-length PSMA3 fused to 3xHA tag and Luc2 (UniProt P25788); experiment: split reporter; split Gaussia luciferase complementation; PSMA3 or Trapper on Luc2, p21 or its fragments on Luc1; HEK293 cells co-transfected, harvested after 48 h, luminescence read in 0.1% NP-40 lysates; signal as fold over control plasmids
[2] = target: PSMA3 Trapper (PSMA3 186-255) fused to 3xHA tag and Luc2 (UniProt P25788); experiment: as above

Amino acid sequences for entries named in this document (tags omitted). A change or cut given only in a name is not applied to a line headed by its entry. Chains listed by the source or under a name are the forms on record and can include a tag or linker. Residues count along the entry.
UniProt P25788: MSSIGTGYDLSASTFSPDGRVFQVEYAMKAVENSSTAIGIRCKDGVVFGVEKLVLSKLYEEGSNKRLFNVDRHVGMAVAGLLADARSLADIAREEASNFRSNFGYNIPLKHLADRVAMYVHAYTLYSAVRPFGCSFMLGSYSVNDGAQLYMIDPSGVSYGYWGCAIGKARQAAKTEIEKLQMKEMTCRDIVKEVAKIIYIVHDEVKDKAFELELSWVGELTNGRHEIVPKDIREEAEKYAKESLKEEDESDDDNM
PSMA3 Trapper (PSMA3 186-255) fused to 3xHA tag and Luc2: residues 186-255 of P25788
UniProt P38936: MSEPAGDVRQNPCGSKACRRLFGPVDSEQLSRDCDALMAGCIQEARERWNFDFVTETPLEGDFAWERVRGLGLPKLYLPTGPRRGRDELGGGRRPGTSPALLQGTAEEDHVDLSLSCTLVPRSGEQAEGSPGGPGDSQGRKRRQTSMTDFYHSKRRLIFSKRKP

Substance	binding [1]	binding [2]
6xmyc p21 fused to Luc1, full-length p21 (2-164) (from UniProt P38936 2-164)	binds	binds
p21 C fragment (131-164 aa) fused to 6xmyc and Luc1 (from UniProt P38936 131-164) (domain or fragment)	binds	binds
truncated p21 C region deleted mutant (2-131) fused to 6xmyc and Luc1 (from UniProt P38936 2-131) (domain or fragment)	no binding	no binding

Reference: publication PMC11476297
